{
  "source": "paper PMC9911399",
  "about": "“Two distinct binding modes provide the RNA-binding protein RbFox with extraordinary sequence specificity”",
  "binders": {"B1": {"name": "CGGCGAC (DNA:RNA)", "RNA": "GGGAGACCGGAAUUCAGAUUGUCCCGGCGACUUAAAUCCCGUCGUAGCCACCA", "DNA 1": "CAATCTGAATTCCGGTCTCCC", "DNA 2": "TGGTGGCTACGACGGGATT"}, "B2": {"name": "UUAAGAC (DNA:RNA)", "RNA": "B1 RNA with C25U, G26U, G27A, C28A", "DNA 1": "CAATCTGAATTCCGGTCTCCC", "DNA 2": "TGGTGGCTACGACGGGATT"}, "B3": {"name": "UAUGACG (DNA:RNA)", "RNA": "GGGAGACCGGAAUUCAGAUUGUCCUAUGACGUUAAAUCCCGUCGUAGCCACCA", "DNA 1": "CAATCTGAATTCCGGTCTCCC", "DNA 2": "TGGTGGCTACGACGGGATT"}, "B4": {"name": "GUAAUCC (DNA:RNA)", "RNA": "B1 RNA with C25G, G26U, G27A, C28A, G29U, A30C", "DNA 1": "CAATCTGAATTCCGGTCTCCC", "DNA 2": "TGGTGGCTACGACGGGATT"}, "B5": {"name": "UGAUCCG (DNA:RNA)", "RNA": "B3 RNA with A26G, U27A, G28U, A29C", "DNA 1": "CAATCTGAATTCCGGTCTCCC", "DNA 2": "TGGTGGCTACGACGGGATT"}, "B6": {"name": "CCUUCCA (DNA:RNA)", "RNA": "B3 RNA with U25C, A26C, G28U, A29C, G31A", "DNA 1": "CAATCTGAATTCCGGTCTCCC", "DNA 2": "TGGTGGCTACGACGGGATT"}, "B7": {"name": "ACACCGA (DNA:RNA)", "RNA": "B1 RNA with C25A, G26C, G27A, G29C, A30G, C31A", "DNA 1": "CAATCTGAATTCCGGTCTCCC", "DNA 2": "TGGTGGCTACGACGGGATT"}, "B8": {"name": "AUAGAGG (DNA:RNA)", "RNA": "B3 RNA with U25A, A26U, U27A, C30G", "DNA 1": "CAATCTGAATTCCGGTCTCCC", "DNA 2": "TGGTGGCTACGACGGGATT"}, "B9": {"name": "CGCGUGG (DNA:RNA)", "RNA": "B1 RNA with G27C, C28G, G29U, A30G, C31G", "DNA 1": "CAATCTGAATTCCGGTCTCCC", "DNA 2": "TGGTGGCTACGACGGGATT"}, "B10": {"name": "AUGGAUG (DNA:RNA)", "RNA": "B3 RNA with U25A, A26U, U27G, C30U", "DNA 1": "CAATCTGAATTCCGGTCTCCC", "DNA 2": "TGGTGGCTACGACGGGATT"}, "B11": {"name": "UUAGGAU (DNA:RNA)", "RNA": "B1 RNA with C25U, G26U, G27A, C28G, C31U", "DNA 1": "CAATCTGAATTCCGGTCTCCC", "DNA 2": "TGGTGGCTACGACGGGATT"}, "B12": {"name": "CCGGUUG (DNA:RNA)", "RNA": "B1 RNA with G26C, C28G, G29U, A30U, C31G", "DNA 1": "CAATCTGAATTCCGGTCTCCC", "DNA 2": "TGGTGGCTACGACGGGATT"}, "B13": {"name": "AUCCUCC (DNA:RNA)", "RNA": "B1 RNA with C25A, G26U, G27C, G29U, A30C", "DNA 1": "CAATCTGAATTCCGGTCTCCC", "DNA 2": "TGGTGGCTACGACGGGATT"}, "B14": {"name": "UAACUAG (DNA:RNA)", "RNA": "B3 RNA with U27A, G28C, A29U, C30A", "DNA 1": "CAATCTGAATTCCGGTCTCCC", "DNA 2": "TGGTGGCTACGACGGGATT"}, "B15": {"name": "GUCGUAG (DNA:RNA)", "RNA": "B3 RNA with U25G, A26U, U27C, A29U, C30A", "DNA 1": "CAATCTGAATTCCGGTCTCCC", "DNA 2": "TGGTGGCTACGACGGGATT"}, "B16": {"name": "CUAUAAU (DNA:RNA)", "RNA": "B1 RNA with G26U, G27A, C28U, G29A, C31U", "DNA 1": "CAATCTGAATTCCGGTCTCCC", "DNA 2": "TGGTGGCTACGACGGGATT"}, "B17": {"name": "UAACUUU (DNA:RNA)", "RNA": "B3 RNA with U27A, G28C, A29U, C30U, G31U", "DNA 1": "CAATCTGAATTCCGGTCTCCC", "DNA 2": "TGGTGGCTACGACGGGATT"}, "B18": {"name": "AUGCGAU (DNA:RNA)", "RNA": "B1 RNA with C25A, G26U, C31U", "DNA 1": "CAATCTGAATTCCGGTCTCCC", "DNA 2": "TGGTGGCTACGACGGGATT"}, "B19": {"name": "AUUCGCA (DNA:RNA)", "RNA": "B1 RNA with C25A, G26U, G27U, A30C, C31A", "DNA 1": "CAATCTGAATTCCGGTCTCCC", "DNA 2": "TGGTGGCTACGACGGGATT"}, "B20": {"name": "UAAUAUC (DNA:RNA)", "RNA": "B3 RNA with U27A, G28U, C30U, G31C", "DNA 1": "CAATCTGAATTCCGGTCTCCC", "DNA 2": "TGGTGGCTACGACGGGATT"}},
  "note": "Positions count from the first letter of the chain named. The list shows a part of the results.",
  "data": [
    {"target": "T1, RBFOX1 RRM RbFoxmut (Fox-RRM*) (Homo sapiens, UniProt Q9NWB1 109-208, R118D;E147R;N151S;E152T)", "T1 sequence": "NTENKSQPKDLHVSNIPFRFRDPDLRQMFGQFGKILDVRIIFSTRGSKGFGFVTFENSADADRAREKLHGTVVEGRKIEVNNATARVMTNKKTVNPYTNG", "assay": "EMSA; HiTS-Eq, 1 nM pool, 10 min; buffer printed only for the single-RNA assays: 10 mM Tris pH 7.5, 150 mM NaCl, 3.4 mM EDTA, 0.001% NP-40, 30 C", "conditions": "tags: His6 N-terminal (pET28a); label: 5' 32P", "procedure,_shortened": "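Purified RbFox RRM (wild type or mutant) was equilibrated for 10 min in 50 µL with 1 nM of a 5′-radiolabelled pool of RNA with 7 randomized nucleotides, its flanks annealed to DNA oligonucleotides, across increasing protein concentrations. Free RNA was separated by 8% native PAGE, excised, reverse-transcribed, PCR-barcoded and sequenced on an Illumina HiSeq 2500. Relative association constants came from read-count changes of each variant against the control reaction, normalised to the cognate motif.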", "values": [
      {"binder": "B1", "binding signal": "0.0855 KA relative to UGCAUGU"},
      {"binder": "B2", "binding signal": "0.0787 KA relative to UGCAUGU"},
      {"binder": "B3", "binding signal": "0.0814 KA relative to UGCAUGU"},
      {"binder": "B4", "binding signal": "0.0644 KA relative to UGCAUGU"},
      {"binder": "B5", "binding signal": "0.0824 KA relative to UGCAUGU"},
      {"binder": "B6", "binding signal": "0.0644 KA relative to UGCAUGU"},
      {"binder": "B7", "binding signal": "0.0798 KA relative to UGCAUGU"},
      {"binder": "B8", "binding signal": "0.099 KA relative to UGCAUGU"},
      {"binder": "B9", "binding signal": "0.0774 KA relative to UGCAUGU"},
      {"binder": "B10", "binding signal": "0.64 KA relative to UGCAUGU"},
      {"binder": "B11", "binding signal": "0.0802 KA relative to UGCAUGU"},
      {"binder": "B12", "binding signal": "0.144 KA relative to UGCAUGU"},
      {"binder": "B13", "binding signal": "0.0649 KA relative to UGCAUGU"},
      {"binder": "B14", "binding signal": "0.0916 KA relative to UGCAUGU"},
      {"binder": "B15", "binding signal": "0.145 KA relative to UGCAUGU"},
      {"binder": "B16", "binding signal": "0.0681 KA relative to UGCAUGU"},
      {"binder": "B17", "binding signal": "0.0596 KA relative to UGCAUGU"},
      {"binder": "B18", "binding signal": "0.0711 KA relative to UGCAUGU"},
      {"binder": "B19", "binding signal": "0.157 KA relative to UGCAUGU"},
      {"binder": "B20", "binding signal": "0.0732 KA relative to UGCAUGU"}
    ]}
  ]
}
